# Test results reported in PubChem BioAssay (Tox21).
# Values joined by “and” are separate entries in the source; they are usually repeats but may differ in a detail not shown here. Equal entries are not always repeated. Some structures have more than one record in an assay (separate samples or runs), and their calls can disagree. Active and inactive are the calls of the source. Unless noted, calls come from the whole dose curve; as a rule, active = well fitted curve in the direction sought with a large enough effect in the repeat runs; inconclusive = weak or mixed curves; inactive = no such curve, though single readings can be large; an effect the other way counts as inactive or inconclusive.
# Columns and labels:
# [1] = qHTS assay to identify small molecule antagonists of the androgen receptor (AR) signaling pathway - cell viability counter screen (AID 743033; note: nearly all actives have a fitted effect of over 45% in size; for activity change, negative = cytotoxicity: % is set by controls: 0 for no effect and ±100 for the full control effect); details: AR-bla HEK293 viability, CellTiter-Glo luminescence, 16 h; activity change, negative = cytotoxicity: at 58.5 µM (top of the series) unless noted
# [2] = target: Androgen receptor (Homo sapiens) (UniProt P10275); experiment: qHTS assay to identify small molecule antagonists of the androgen receptor (AR) signaling pathway (AID 743035; active = well fitted inhibition curve with a large enough effect in the signal ratio in the repeat runs, not every such curve was filed as active; inconclusive = weak or mixed curves, or effect the other way; inactive = no such curve, though single readings can be large or run the other way; the % refers to the signal ratio); details: HEK293 AR-UAS-bla, R1881-stimulated, beta-lactamase FRET, 16 h; activity change, negative = inhibition: at 58.5 µM (top of the series) unless noted
# How it was run: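 Steps: seed AR-UAS-bla GripTite HEK293 cells, incubate 4 h at 37C; pin in test compound, then add agonist R1881; incubate 16 h at 37C; add LiveBLAzer B/G FRET substrate, 2 h at room temperature; read fluorescence.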
# [3] = qHTS assay to identify small molecule antagonists of the thyroid receptor (TR) signaling pathway - cell viability counter screen (AID 743064); details: GH3.TRE-Luc viability, CellTiter-Fluor, 24 h; activity change, negative = cytotoxic: at 70.3 µM (top of the series) unless noted; note: nearly all actives have a fitted effect of over 50% in size; for activity change, negative = cytotoxic: % is set by controls: 0 for no effect and ±100 for the full control effect
# How it was run: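 GH3.TRE-Luc cells, 4 h pre-plating; cpd + T3 1 nM final; 37 °C 23.5 h; CellTiter-Fluor 30 min; fluorescence read.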
# [4] = qHTS assay to identify small molecule antagonists of the androgen receptor (AR) signaling pathway using the MDA cell line - cell viability counter screen (AID 743041; note: nearly all actives have a fitted effect of over 45% in size; for viability change, negative = cytotoxic: % is set by controls: 0 for no effect and ±100 for the full control effect); details: MDA-kb2 viability, CellTiter-Fluor, 16 h, cells co-treated with R1881 androgen agonist; viability change, negative = cytotoxic: at 70.3 µM (top of the series) unless noted
# How it was run: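 Using the breast carcinoma line MDA-kb2 AR-luc, test chemicals were co-incubated with R1881 for 16 h; CellTiter-Fluor reagent, added at 15.5 h, provided a fluorescence measure of live cells.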
# [5] = qHTS assay to identify small molecule antagonists of the estrogen receptor alpha (ER-alpha) signaling pathway - cell viability counter screen (AID 743074; calls by dose curve; note: nearly all actives have a fitted effect of over 45% in size)
# [6] = target: Estrogen receptor (Homo sapiens) (UniProt P03372); experiment: qHTS assay to identify small molecule agonists of the estrogen receptor alpha (ER-alpha) signaling pathway using the BG1 cell line (AID 743079); details: BG1Luc4E2 cells, ERE-luciferase agonist, 22 h; activation: at 70.3 µM (top of the series) unless noted; note: nearly all actives have a fitted effect of over 20% in size
# [7] = target: Estrogen receptor (Homo sapiens) (UniProt P03372); experiment: qHTS assay to identify small molecule antagonists of the estrogen receptor alpha (ER-alpha) signaling pathway (AID 743069; active = well fitted curve in the direction sought with a large enough effect in the signal ratio in the repeat runs, not every such curve was filed as active; inconclusive = weak or mixed curves, or effect the other way; inactive = no such curve, though single readings can be large or run the other way; the % refers to the signal ratio); details: HEK293 ER-alpha-UAS-bla, beta-lactamase ratio, antagonist mode; activity, negative = inhibition: at 69.4 µM (top of the series) unless noted
# How it was run: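 Fluorescence intensity from a beta-lactamase FRET substrate served as the read-out. Cells: HEK293 with stably integrated ER-alpha-UAS-bla reporter. Agonist 17beta-estradiol was co-added with compounds; incubation 18 hr at 37C, substrate 2 hr at room temperature.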
# [8] = qHTS assay to identify small molecule antagonists of the thyroid receptor (TR) signaling pathway (AID 743065); note: nearly all actives have a fitted effect of over 55% in size
# How it was run: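 Antagonism measured as loss of luciferase signal in GH3 cells stably carrying a TRE-luciferase reporter, co-treated with compound and T3 (1 nM final) for 23.5 h at 37 C. Viability was read in the same well by CellTiter-Fluor.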
# [9] = qHTS assay to identify small molecule antagonists of the estrogen receptor alpha (ER-alpha) signaling pathway using the BG1 cell line (AID 743080; calls by dose curve;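 note: BG1 cells stimulated with 17beta-estradiol alongside compound; nearly all actives have a fitted effect of over 25% in size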); details: BG1Luc4E2 ERE-luciferase antagonist mode, luminescence; activity change, negative = inhibition: at 70.3 µM (top of the series) unless noted
# How it was run: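 BG1Luc4E2, endogenous ER-alpha, 4xERE-luc; 5 d charcoal-stripped FBS, phenol red free; 24 h plating; cpd + 17beta-estradiol 21.5 h, 37 C/5% CO2; CellTiter-Fluor viability 30 min, then ONE-Glo luciferase 30 min RT.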
# [10] = qHTS assay to identify small molecule antagonists of the estrogen receptor alpha (ER-alpha) signaling pathway using the BG1 cell line - cell viability counter screen (AID 743081); details: BG1Luc4E2 viability, CellTiter-Fluor, 22 h; activity change, negative = cytotoxicity: at 70.3 µM (top of the series) unless noted;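 note: compound given together with 17beta-estradiol as the ER stimulus; nearly all actives have a fitted effect of over 45% in size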
# [11] = test system: thyroid hormone receptor (rat, GH3 cells); experiment: qHTS assay to identify small molecule agonists of the thyroid receptor (TR) signaling pathway (AID 743066; calls by dose curve; for activation: % is set by controls: 0 for no effect and ±100 for the full control effect); details: GH3.TRE-Luc cells, TR agonist luciferase, 24 h; activation: at 83.9 µM (top of the series) unless noted
# Aromatase (Homo sapiens) = Aromatase (Homo sapiens) (UniProt P11511); experiment: qHTS assay to identify aromatase inhibitors (AID 743083); details: MCF-7 aro ERE, testosterone-driven ERE luciferase, 24 h; activity, negative = inhibition: at 70.3 µM (top of the series); note: nearly all actives have a fitted effect of over 55% in size
# [12] = target: Estrogen receptor (Homo sapiens) (UniProt P03372); experiment: qHTS assay to identify small molecule agonists of the estrogen receptor alpha (ER-alpha) signaling pathway (AID 743075; calls by dose curve)
# Potency is the fitted concentration of half-maximal effect; tags give direction and shape of the fitted curve or compound fluorescence and quenching.
# UniProt P03372, sequence (P03372 whole entry, looked up): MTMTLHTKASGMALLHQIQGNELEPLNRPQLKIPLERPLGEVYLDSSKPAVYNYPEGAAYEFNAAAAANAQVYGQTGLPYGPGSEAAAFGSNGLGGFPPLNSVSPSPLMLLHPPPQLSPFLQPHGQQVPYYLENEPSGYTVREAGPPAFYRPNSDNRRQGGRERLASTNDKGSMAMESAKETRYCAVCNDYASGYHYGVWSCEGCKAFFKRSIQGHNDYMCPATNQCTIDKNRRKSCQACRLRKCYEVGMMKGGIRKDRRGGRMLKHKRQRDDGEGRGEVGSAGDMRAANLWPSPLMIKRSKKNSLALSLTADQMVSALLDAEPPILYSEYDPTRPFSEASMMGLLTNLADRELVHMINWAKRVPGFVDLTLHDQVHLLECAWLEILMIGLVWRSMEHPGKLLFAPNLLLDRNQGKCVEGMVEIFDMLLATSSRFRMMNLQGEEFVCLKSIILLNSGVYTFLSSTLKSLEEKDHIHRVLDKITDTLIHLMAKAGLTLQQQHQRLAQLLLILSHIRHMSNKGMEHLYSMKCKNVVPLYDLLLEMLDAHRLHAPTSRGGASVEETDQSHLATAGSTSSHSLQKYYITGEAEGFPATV
# UniProt P11511, sequence (P11511 whole entry, looked up): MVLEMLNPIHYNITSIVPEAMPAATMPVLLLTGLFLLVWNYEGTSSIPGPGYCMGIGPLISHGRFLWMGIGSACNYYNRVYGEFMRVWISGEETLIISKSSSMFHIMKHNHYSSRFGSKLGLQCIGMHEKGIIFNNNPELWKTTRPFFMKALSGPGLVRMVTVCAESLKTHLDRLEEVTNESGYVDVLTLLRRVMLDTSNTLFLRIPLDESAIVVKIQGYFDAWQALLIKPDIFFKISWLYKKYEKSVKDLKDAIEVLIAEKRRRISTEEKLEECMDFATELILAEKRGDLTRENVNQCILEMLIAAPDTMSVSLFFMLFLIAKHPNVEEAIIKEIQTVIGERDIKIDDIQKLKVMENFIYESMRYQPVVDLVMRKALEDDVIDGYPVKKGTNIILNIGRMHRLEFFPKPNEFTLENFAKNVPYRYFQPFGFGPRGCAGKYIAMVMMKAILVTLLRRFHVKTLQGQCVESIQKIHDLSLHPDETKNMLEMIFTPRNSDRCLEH
# UniProt P10275, sequence (P10275 whole entry, looked up): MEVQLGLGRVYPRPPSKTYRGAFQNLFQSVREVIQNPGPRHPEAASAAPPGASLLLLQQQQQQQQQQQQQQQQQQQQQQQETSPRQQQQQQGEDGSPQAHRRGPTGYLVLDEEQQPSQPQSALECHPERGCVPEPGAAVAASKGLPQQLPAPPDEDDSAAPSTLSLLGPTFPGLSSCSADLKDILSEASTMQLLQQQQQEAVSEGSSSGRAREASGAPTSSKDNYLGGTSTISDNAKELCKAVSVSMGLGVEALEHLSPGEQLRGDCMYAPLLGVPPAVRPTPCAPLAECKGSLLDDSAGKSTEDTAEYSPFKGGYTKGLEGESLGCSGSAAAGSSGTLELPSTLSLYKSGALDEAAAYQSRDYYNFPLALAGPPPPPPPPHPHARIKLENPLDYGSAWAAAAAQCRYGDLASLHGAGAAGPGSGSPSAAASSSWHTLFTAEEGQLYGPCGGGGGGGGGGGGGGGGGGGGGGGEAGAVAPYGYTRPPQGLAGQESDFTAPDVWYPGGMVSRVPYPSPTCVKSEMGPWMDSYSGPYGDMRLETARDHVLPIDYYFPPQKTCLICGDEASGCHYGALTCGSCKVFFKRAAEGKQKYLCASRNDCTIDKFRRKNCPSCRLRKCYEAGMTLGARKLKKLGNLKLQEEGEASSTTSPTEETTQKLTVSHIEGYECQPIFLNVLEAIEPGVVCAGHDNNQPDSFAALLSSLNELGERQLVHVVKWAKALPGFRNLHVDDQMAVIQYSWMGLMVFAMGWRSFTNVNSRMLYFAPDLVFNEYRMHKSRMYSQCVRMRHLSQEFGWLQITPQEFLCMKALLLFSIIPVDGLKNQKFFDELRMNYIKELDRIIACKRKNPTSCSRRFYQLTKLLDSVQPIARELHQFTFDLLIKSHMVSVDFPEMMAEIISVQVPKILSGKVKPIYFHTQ
compound,measurement,setting,value
CC1(C)CCC[C@]2(C)[C@H]3CCO[C@]3(C)CC[C@@H]12,Potency,[1],inactive
CCCCCCCCCCOC(=O)c1ccccc1C(=O)OCCCCCCCC,Potency,[1],inactive
same,Potency,[2],"inconclusive: 21.9 µM [falling, full curve]"
same,Potency,[3],"inconclusive: 0.611 µM [rising, single point]"
O=C(O)Cc1ccc(-c2ccccc2)cc1,Potency,[1],inconclusive: 0.0014 µM [cytotoxic]
COc1ccccc1O,Potency,[1],"inconclusive: 9.56 µM [cytotoxic, full curve]"
same,"viability change, negative = cytotoxic",[4],inconclusive: 30.2% [at 95 µM]
same,Potency,[3],"inconclusive: 3.08 µM [rising, partial curve]"
same,Potency,[5],"inconclusive: 19.6 µM [rising, full curve, poor fit]"
same,Potency,[6],inconclusive: 48.9 µM [activator]
CC(C)NCC(O)c1ccc(NS(C)(=O)=O)cc1 (configuration not stated),Potency,[1],"inconclusive: 4.25 µM [cytotoxic, full curve, poor fit]"
same,Potency,[3],"inconclusive: 2.98 µM [rising, single point]"
same,Potency,[5],"inconclusive: 2.13 µM [rising, full curve, poor fit]"
Cc1ccc2ccc3cccc4ccc1c2c34,Potency,[1],"inconclusive: 48.9 µM [cytotoxic, partial curve, poor fit]"
same,Potency,[4],"inconclusive: 27.3 µM [rising, partial curve, poor fit]"
same,Potency,[3],inactive
same,Potency,[7],"inconclusive: 4.36 µM [activator, full curve]"
same,Potency,[5],"inconclusive: 30.9 µM [cytotoxic, partial curve, poor fit]"
C=CC(=O)OCCOCCOC(=O)C=C,Potency,[1],active: 39.1 µM
same,Potency,[3],"inconclusive: 68.9 µM [cytotoxic, single point]"
same,Potency,[8],active: 68.9 µM
same,Potency,[7],active: 61.9 µM [inconclusive]
same,Potency,[5],"inconclusive: 61.9 µM [cytotoxic, single point]"
same,Potency,[9],"inconclusive: 8.67 µM [rising, partial curve]"
same,Potency,[10],"inconclusive: 48.8 µM [cytotoxic, partial curve]"
C[C@@H](CN(C)C)CN1c2ccccc2Sc2ccccc21,Potency,[1],"inconclusive: 0.0406 µM [cytotoxic, full curve, poor fit]"
same,Potency,[3],active: 4.03 µM
OCCN1CCN(CCCN2c3ccccc3Sc3ccc(C(F)(F)F)cc32)CC1,Potency,[1],"inconclusive: 6.74 µM [cytotoxic, partial curve, poor fit]"
same,Potency,[4],"inconclusive: 31.2 µM [cytotoxic, single point]"
same,Potency,[3],active: 6.68 µM
same,activation,[11],inconclusive: -9.27% [phenotype inactive]
same,Potency,Aromatase (Homo sapiens),"inconclusive: 23.7 µM [inhibitor, partial curve]"
CCCCCCCC#N,Potency,[1],"inconclusive: 61.7 µM [cytotoxic, partial curve, poor fit]"
same,Potency,[8],inactive
same,Potency,[11],inactive
same,Potency,[5],"inconclusive: 0.977 µM [rising, full curve, poor fit]"
CCCOC(=O)c1cc(O)c(O)c(O)c1,Potency,[1],"inconclusive: 16.9 µM [cytotoxic, partial curve, poor fit]"
same,Potency,[4],"inconclusive: 29.8 µM [cytotoxic, partial curve, poor fit]"
same,Potency,[3],"inconclusive: 33.5 µM [cytotoxic, single point] and inconclusive: 27.2 µM [cytotoxic, partial curve] and inconclusive: 68.6 µM [cytotoxic]"
same,Potency,[11],"inconclusive: 8.59 µM [activator, partial curve, poor fit]"
same,Potency,[7],"inconclusive: 9.52 µM [activator, partial curve] and inconclusive: 5.47 µM [cytotoxic, full curve] and inconclusive: 24.5 µM [activator, partial curve]"
same,Potency,[5],"inconclusive: 4.34 µM [rising, full curve]"
same,Potency,[12],active: 9.52 µM [inconclusive] and active: 19.4 µM [inconclusive] and active: 61.6 µM [inconclusive]
same,Potency,[6],active: 26.6 µM
same,activation,[6],inconclusive: 10.5% [phenotype inactive]
same,Potency,[10],"inconclusive: 18.8 µM [cytotoxic, single point]"
same,Potency,Aromatase (Homo sapiens),"inconclusive: 9.44 µM [inhibitor, partial curve, poor fit] and inconclusive: 38.4 µM [inhibitor, partial curve, poor fit]"
